The source of these data is the supplement of paper PMC9446081.

The campaign covered roughly 39,000 compounds. About 220 (0.56%) showed activity. This is one part of the list.
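Note: static incubation at 37 °C against the wild-type strain, values averaged over two biological replicates.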

The test relates to Escherichia coli K-12 BW25113. In words: relative growth (OD600 normalised to plate interquartile mean) (fraction); higher = less growth inhibition, active = 0.2 or less. Particulars: 50 µM; LB; incubation time: overnight (16-24 h).
In the case of `C[C@H](CO)N1C[C@H](C)[C@@H](CN(C)C(=O)C2CCCCC2)OCCCC[C@H](C)Oc2ccc(NC(=O)NC3CCCCC3)cc2C1=O`, the relative growth was inactive: 1.01.

Consider `C[C@H](CO)N1C[C@H](C)[C@@H](CN(C)C)Oc2ccc(NS(=O)(=O)c3cn(C)cn3)cc2CC1=O`, for which the relative growth is inactive: 0.993.

In the case of `CCOC(=O)N(C)C[C@@H]1OCc2cnnn2CCCC(=O)N([C@H](C)CO)C[C@H]1C`, the relative growth was inactive: 1.01.

On to `C[C@@H]1CCCCO[C@H](CN(C)Cc2ccc(C(=O)O)cc2)[C@H](C)CN([C@H](C)CO)C(=O)c2cc(NS(=O)(=O)c3cccs3)ccc2O1`, for which the relative growth is inactive: 0.995.

For `C[C@@H]1CN([C@@H](C)CO)C(=O)c2cc(NC(=O)NC3CCCCC3)ccc2O[C@@H](C)CCCCO[C@H]1CN(C)C(=O)NC1CCCCC1`, the relative growth is inactive: 0.991.

In the case of `COc1ccc(NC(=O)Nc2ccc3c(c2)C(=O)N([C@H](C)CO)C[C@@H](C)[C@@H](CN(C)C(=O)NC2CCCCC2)OCCCC[C@H](C)O3)cc1`, the relative growth was inactive: 1.03.

As to `Cn1cnc(S(=O)(=O)N2C[C@@H](O)COC[C@@H]3O[C@H](CC(=O)N4CCN(c5ccccc5)CC4)CC[C@H]32)c1`, the relative growth was inactive: 1.01.

Take `COc1ccc(S(=O)(=O)Nc2ccc3c(c2)CC(=O)N([C@@H](C)CO)C[C@H](C)[C@H](CN(C)Cc2ccc(-c4ccccc4)cc2)O3)cc1`: the relative growth was inactive: 1.01.

In the case of `COc1ccc(F)c(C(=O)N2CCN(CCO)[C@@H]3CS(=O)(=O)C[C@@H]32)c1F`, the relative growth was inactive: 0.98.

Take `Nc1ccc2oc3c(c2c1)CCCC3`: the relative growth was inactive: 0.986.

On to `COC1=C(OC)C(=O)C(C/C=C(\C)CC/C=C(\C)CC/C=C(\C)CC/C=C(/C)CC/C=C(\C)CC/C=C(\C)CC/C=C(\C)CC/C=C(\C)CC/C=C(\C)CCC=C(C)C)=C(C)C1=O`, for which the relative growth was inactive: 1.

In the case of `COc1ccc([Si](C)(C)[C@@H]2[C@@H](CCn3cc([C@H](O)c4ccccc4)nn3)O[C@]3(C(=O)N(Cc4cccc(N5CCC5=O)c4)c4ccccc43)[C@H]2C)cc1`, the relative growth was inactive: 0.92.

With `C[C@@H]1CCCCO[C@@H](CN(C)Cc2ccc(Cl)c(Cl)c2)[C@@H](C)CN([C@@H](C)CO)C(=O)c2cc(NC(=O)Cc3ccccc3)ccc2O1`, the relative growth was inactive: 1.02.

For the compound `Brc1cccc2ocnc12`, the relative growth was inactive: 1.01.

With `C[C@@H]1CN([C@@H](C)CO)C(=O)c2cc(NC(=O)Nc3ccc4c(c3)OCO4)ccc2O[C@@H]1CN(C)Cc1ccc(Oc2ccccc2)cc1`, the relative growth was inactive: 1.01.

In the case of `C[C@@H]1CN([C@H](C)CO)C(=O)c2cc(NC(=O)Cc3ccccc3)ccc2O[C@@H](C)CCCCO[C@H]1CN(C)S(=O)(=O)c1ccc(Cl)cc1`, the relative growth was inactive: 1.04.

As to `COc1cccc(S(=O)(=O)N2C[C@H](O)COC[C@H]3O[C@@H](CC(=O)N4CCOCC4)CC[C@@H]32)c1`, the relative growth was inactive: 0.989.

In the case of `COc1ccc(S(=O)(=O)N(C)C[C@H]2Oc3ccc(NS(C)(=O)=O)cc3CC(=O)N([C@@H](C)CO)C[C@H]2C)cc1`, the relative growth was inactive: 0.957.

Take `C[C@H](CO)N1C[C@H](C)[C@H](CN(C)CC2CCCCC2)Oc2c(NC(=O)c3ccc(-c4nccs4)cc3)cccc2C1=O`: the relative growth is inactive: 0.999.

For the compound `Cc1ccc(S(=O)(=O)Nc2ccc3c(c2)C(=O)N([C@@H](C)CO)C[C@@H](C)[C@H](CN(C)Cc2ccc4c(c2)OCO4)OCCCC[C@H](C)O3)cc1`, the relative growth is inactive: 1.

With `C[C@@H]1CCCCO[C@@H](CN(C)Cc2ccc(C(F)(F)F)cc2)[C@@H](C)CN([C@@H](C)CO)C(=O)c2cc(NC(=O)C3CCCCC3)ccc2O1`, the relative growth is inactive: 1.01.

As for `O=C(CCCCCNC(=O)OCc1ccc(CO[C@@H]2C[C@H](C3CCCCC3)C=C(C(=O)N3CCCCCCC3)O2)cc1)NO`, the relative growth is inactive: 0.995.

As for `C[C@@H]1CCCCO[C@@H](CN(C)Cc2ccc(C(F)(F)F)cc2)[C@H](C)CN([C@@H](C)CO)C(=O)c2cc(NC(=O)CCC(F)(F)F)ccc2O1`, the relative growth was inactive: 1.03.

Consider `CC1(C)[C@@H](OC(=O)CCC(=O)O)CC[C@@]2(C)[C@H]1CC[C@]1(C)[C@H]2C(=O)C=C2[C@@H]3C[C@@](C)(C(=O)O)CC[C@]3(C)CC[C@]21C`, for which the relative growth was inactive: 0.973.

In the case of `COc1ccc(CN(C)C[C@H]2OCCCC[C@@H](C)Oc3ccc(NS(=O)(=O)c4c(C)noc4C)cc3C(=O)N([C@@H](C)CO)C[C@H]2C)cc1`, the relative growth is inactive: 1.01.

With `C[C@H]1CN([C@@H](C)CO)C(=O)c2cc(NC(=O)CCCCCC(=O)Nc3ccccc3N)ccc2O[C@H]1CN(C)S(=O)(=O)c1cn(C)cn1`, the relative growth was inactive: 1.01.

Consider `COc1ccc([Si](C)(C)[C@@H]2[C@@H](CCn3cc([C@H](O)c4ccccc4)nn3)O[C@]3(C(=O)N(Cc4cccc(N5C(=O)c6cccc7cccc5c67)c4)c4ccccc43)[C@H]2C)cc1`, for which the relative growth is inactive: 1.04.

`COCC(=O)N1C[C@@H](C)[C@H](OC)CN(C)C(=O)c2ccc(NC(=O)c3cc(C)on3)cc2OC[C@@H]1C`: the relative growth was inactive: 0.983.

Turning to `COc1ccc(S(=O)(=O)N(C)C[C@H]2OCc3cn(nn3)CCCC(=O)N([C@@H](C)CO)C[C@H]2C)cc1`, the relative growth was inactive: 1.

Consider `Cn1cnc(S(=O)(=O)N2C[C@H](O)COC[C@@H]3O[C@H](CC(=O)NCc4cc(F)cc(F)c4)CC[C@H]32)c1`, for which the relative growth was inactive: 0.996.

In the case of `O=C(C[C@H]1CC[C@H]2[C@@H](COC[C@@H](O)CN2S(=O)(=O)c2ccccc2)O1)NCc1ccc(-c2ccccc2)cc1`, the relative growth is inactive: 0.994.

In the case of `O=C(Cc1ccccc1)NCCN1CCOCC1`, the relative growth was inactive: 0.996.

As to `CCC(=O)N(C)C[C@@H]1Oc2ncc(C#C[C@H](C)O)cc2C(=O)N([C@H](C)CO)C[C@H]1C`, the relative growth was inactive: 0.997.

Consider `C[C@H]1CN([C@@H](C)CO)S(=O)(=O)c2ccc(Br)cc2O[C@@H]1CN(C)S(=O)(=O)c1ccccc1F`, for which the relative growth is inactive: 0.995.

Take `C[C@@H]1CN([C@H](C)CO)C(=O)Cc2cc(NS(=O)(=O)c3cn(C)cn3)ccc2O[C@@H]1CN(C)S(=O)(=O)c1ccc(Cl)cc1`: the relative growth was inactive: 0.952.

On to `C[C@@H]1CN([C@@H](C)CO)C(=O)c2cc(NS(=O)(=O)c3ccc(Cl)cc3)ccc2O[C@@H](C)CCCCO[C@H]1CN(C)Cc1ccccc1`, for which the relative growth was inactive: 1.02.

On to `O=C(CSc1nnc(-c2ccccc2)n1C1CCCCC1)Nc1ccc(S(=O)(=O)Nc2ccccn2)cc1`, for which the relative growth is inactive: 0.98.

Turning to `C[C@H]1CCCCO[C@@H](CN(C)C(=O)NC2CCCCC2)[C@@H](C)CN([C@@H](C)CO)C(=O)c2cc(NC(=O)Nc3ccc(F)cc3)ccc2O1`, the relative growth was inactive: 1.01.

With `Cc1ccoc1C(=O)NCCN`, the relative growth is inactive: 0.961.

For the compound `Nc1ccc(S(N)(=O)=O)cn1`, the relative growth was inactive: 0.957.

For `NCC[C@H]1CC[C@H](NC(=O)C2CCCC2)[C@@H](CO)O1`, the relative growth is inactive: 0.987.

On to `C[C@H](CO)N1C[C@H](C)[C@H](CN(C)C(=O)Nc2ccc3c(c2)OCO3)OCc2cnnn2CCCC1=O`, for which the relative growth was inactive: 1.

`CCOCCOc1ccccc1C(N)=O`: the relative growth was inactive: 1.16.

For the compound `Cc1ccc(S(=O)(=O)N(C)C[C@H]2OCCCC[C@H](C)Oc3ccc(NC(=O)Nc4ccc(C(F)(F)F)cc4)cc3C(=O)N([C@@H](C)CO)C[C@H]2C)cc1`, the relative growth was inactive: 1.05.

Consider `C[C@H]1CN([C@@H](C)CO)C(=O)c2cc(NS(=O)(=O)c3ccccc3)ccc2O[C@H]1CN(C)S(C)(=O)=O`, for which the relative growth was inactive: 0.995.

`C[C@H]1CN([C@@H](C)CO)S(=O)(=O)c2ccc(-c3cncnc3)cc2O[C@H]1CN(C)C(=O)CN(C)C`: the relative growth was inactive: 1.

For the compound `C[C@@H]1CCCCO[C@@H](CN(C)C(=O)Nc2ccc3c(c2)OCO3)[C@@H](C)CN([C@@H](C)CO)C(=O)c2cc(NC(=O)C3CCCCC3)ccc2O1`, the relative growth was inactive: 1.03.

`Cn1cncc1[C@@](N)(c1ccc(Cl)cc1)c1ccc2c(c1)c(-c1cccc(Cl)c1)cc(=O)n2C`: the relative growth is inactive: 0.927.

With `C[C@@H]1CCCCO[C@@H](CN(C)Cc2ccc3c(c2)OCO3)[C@H](C)CN([C@H](C)CO)C(=O)c2cc(NC(=O)CCC(F)(F)F)ccc2O1`, the relative growth is inactive: 1.

As for `CC(C)NC(=O)Nc1ccc2c(c1)C(=O)N([C@H](C)CO)C[C@@H](C)[C@@H](CN(C)C(=O)Nc1ccccc1)OCCCC[C@@H](C)O2`, the relative growth is inactive: 0.995.

On to `Cc1ccc(S(=O)(=O)N2C[C@@H](O)COC[C@H]3O[C@@H](CC(=O)NCc4ccc(Cl)c(Cl)c4)CC[C@@H]32)cc1`, for which the relative growth was inactive: 1.02.

For the compound `C[C@@H]1CN([C@@H](C)CO)C(=O)c2cc(NC(=O)Nc3ccc(F)cc3)ccc2O[C@@H](C)CCCCO[C@H]1CN(C)C(=O)Nc1cccc2ccccc12`, the relative growth is inactive: 1.03.

Take `O=C(C[C@H]1C[C@H]2c3cc(NC(=O)c4ccc5c(c4)OCO5)ccc3O[C@H]2[C@H](CO)O1)NCC(F)(F)F`: the relative growth was inactive: 1.

Consider `O=C(O)Cn1c(=O)n(CC(=O)O)c2ccccc21`, for which the relative growth was inactive: 1.

`O=C(C[C@H]1CC[C@H]2[C@@H](COC[C@@H](O)CN2C(=O)Nc2ccc(Cl)cc2)O1)NC1Cc2ccccc2C1`: the relative growth is inactive: 0.972.

For `C[C@@H]1CCCCO[C@H](CN(C)C(=O)C2CCCCC2)[C@@H](C)CN([C@H](C)CO)C(=O)c2cc(NS(=O)(=O)c3ccccc3)ccc2O1`, the relative growth is inactive: 1.03.

For `COCC(=O)N1CC(=O)N2[C@H](CO)[C@H](c3ccc(C#Cc4cccnc4)cc3)[C@@H]2C1`, the relative growth is inactive: 0.958.

Regarding `C[C@@H]1CCCCO[C@H](CN(C)S(C)(=O)=O)[C@H](C)CN([C@@H](C)CO)C(=O)c2cc(NC(=O)c3ccncc3)ccc2O1`, the relative growth is inactive: 0.996.

As to `Cc1noc(C)c1NC(=O)Nc1ccc2c(c1)C(=O)N([C@H](C)CO)C[C@H](C)[C@@H](CN(C)Cc1ccc(C(=O)Nc3ccccc3N)cc1)O2`, the relative growth was inactive: 0.99.
